Data as given in the supplement of paper PMC12217912.
The list shows a part of the results. The full chains were built here from the parent and the listed change. Inactive controls read about 0.05.

B1: TEV protease; numbered along this chain (parent)
chain: MGESLFKGPRDYNPISSSICHLTNESDGHTTSLYGIGFGPFIITNKHLFRRNNGTLVVQSLHGVFKVKDTTTLQQHLVDGRDMIIIRMPKDFPPFPQKLKFREPQREERICLVTTNFQTKSMSSMVSDTSCTFPSGDGIFWKHWIQTKDGQCGSPLVSTRDGFIVGIHSASNFTNTNNYFTSVPKNFMELLTNQEAQQWVSGWRLNADSVLWGGHKVFMVKPEEPFQPVKEATQL

Variants of: B1
Test: raw area under fraction-flipped curve 0-4 h after induction (AUC4h, not background-subtracted), DNA-recorder readout of cleavage of the substrate (dimensionless); higher = more cleavage of the substrate by the protease variant
Settings: temperature: 34 °C; time window: 0-4 h after rhamnose induction
Experimental: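 In vivo DNA recorder in E. coli TOP10(DE3) ΔrhaA at 34 °C. Each TEVp single-site mutant (parent TEVp 0) is paired with a single-site variant of the 7-mer TEVs (canonical ENLYFQ|S). The substrate sits between flexible linkers in a Bxb1-sfGFP-TEVs-SsrA fusion, so cleavage stabilises Bxb1 and speeds flipping of a recombination array, read by NGS. The value is the raw area under the fraction-flipped curve over 0-4 h after rhamnose induction (AUC4h), with ≥20 reads per time point. It is not background-subtracted; inactive controls average about 0.047.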
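Further: Bxb1 expression induced with 0.2% (w/v) L-rhamnose at OD600 near 0.5, cultures sampled hourly, flipped fraction per protease–substrate barcode pair counted by paired-end Illumina sequencing.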

Row | Variant | area with substrate ENLYFQC | area with substrate ENLYFQD | area with substrate ENLYFQE | area with substrate ENLYFQF | area with substrate ENLYFQG | area with substrate ENLYFQI | area with substrate ENLYFQK | area with substrate ENLYFQL | area with substrate ENLYFQM | area with substrate ENLYFQN | area with substrate ENLYFQP | area with substrate ENLYFQR | area with substrate ENLYFQS | area with substrate ENLYFQT | area with substrate ENLYFQV | area with substrate ENLYFQW | area with substrate ENLYFQY | area with substrate ENLYFQH | area with substrate ENLYFQQ
1 | M219R | 0.0618 | 0.0709 | 0.06 | 0.0504 | 0.0711 | 0.0588 | 0.0585 | 0.0611 | 0.0766 | 0.066 | 0.0489 | 0.0561 | 0.0762 | 0.0539 | 0.0662 | 0.0524 | 0.0532 |  | 
2 | C111K |  | 0.0927 |  |  | 0.144 |  | 0.0711 | 0.0611 | 0.113 | 0.0813 |  |  | 0.111 | 0.0987 | 0.0786 | 0.0568 | 0.0819 |  | 
3 | Q197C | 0.148 |  |  |  |  | 0.0436 | 0.062 | 0.0593 | 0.107 |  |  | 0.0555 | 0.11 | 0.0683 | 0.0456 | 0.0675 |  |  | 
4 | F218G | 0.0836 |  |  |  | 0.0688 |  |  | 0.0515 |  |  | 0.0747 | 0.0564 | 0.088 | 0.0167 | 0.0619 | 0.056 |  | 0.0625 | 
5 | K185P | 0.104 | 0.0872 |  |  |  |  | 0.0633 | 0.0605 |  |  |  | 0.0623 | 0.113 | 0.0679 |  |  | 0.0976 |  | 
6 | S121A |  | 0.0834 |  |  | 0.0939 |  | 0.067 | 0.0536 | 0.049 |  |  | 0.0632 | 0.0997 | 0.0506 | 0.0254 |  |  | 0.0804 | 
7 | E3G |  | 0.0719 |  | 0.0741 | 0.0758 | 0.0722 |  | 0.0654 |  | 0.0714 | 0.0718 | 0.0603 | 0.0698 | 0.0627 | 0.0693 | 0.0669 | 0.059 | 0.0733 | 0.0611
8 | Q227E | 0.115 |  |  | 0.0943 |  | 0.0643 | 0.072 | 0.0572 | 0.0907 | 0.0862 | 0.0584 |  | 0.102 | 0.0689 | 0.0715 | 0.0591 | 0.0431 |  | 0.0742
9 | Q227P |  | 0.0841 | 0.0531 |  | 0.0871 | 0.0519 |  | 0.0656 | 0.073 | 0.068 |  | 0.0494 | 0.105 | 0.0018 | 0.0816 |  |  |  | 0.0484
10 | Q227M | 0.142 |  |  |  | 0.0801 | 0.0524 | 0.0588 | 0.0549 | 0.0781 | 0.0909 |  | 0.0534 | 0.102 |  | 0.0308 | 0.0737 | 0.07 | 0.0734 | 0.0921
11 | G150F | 0.0585 | 0.0562 |  |  | 0.0536 | 0.0603 | 0.0599 | 0.0651 | 0.0487 |  |  | 0.0712 | 0.0564 | 0.0612 |  | 0.0631 | 0.0418 | 0.0482 | 
12 | K148T | 0.0718 |  |  |  | 0.104 | 0.0684 | 0.0581 | 0.0626 |  |  |  | 0.0528 | 0.0839 |  | 0.0705 |  | 0.0699 | 0.0788 | 
13 | L205F | 0.119 |  |  |  | 0.109 |  |  | 0.0612 | 0.098 |  |  | 0.0563 | 0.104 | 0.034 |  | 0.0579 |  |  | 0.0683
14 | L205N | 0.0671 |  |  |  | 0.0714 |  | 0.0672 |  |  |  |  | 0.0491 | 0.0748 | 0.0556 |  |  |  |  | 
15 | W144T |  |  |  | 0.0693 |  |  | 0.0691 |  | 0.109 | 0.0703 | 0.0619 |  | 0.0941 | 0.0648 | 0.0617 |  |  |  | 
16 | V217H | 0.057 | 0.0594 | 0.06 |  | 0.0643 | 0.0616 | 0.0456 | 0.0558 | 0.0611 |  |  |  | 0.0588 | 0.0546 | 0.063 |  |  |  | 
17 | G136P | 0.0605 |  |  |  | 0.0832 |  |  | 0.0647 | 0.0687 |  | 0.075 | 0.0587 | 0.0817 | 0.0673 |  | 0.0486 |  | 0.0661 | 
18 | R204N | 0.103 | 0.0721 | 0.0508 | 0.0746 |  | 0.055 |  | 0.0674 | 0.0743 | 0.0788 | 0.0562 | 0.07 | 0.104 | 0.0701 | 0.0648 | 0.077 | 0.0809 | 0.0887 | 
19 | V200E | 0.0487 |  | 0.035 |  |  | 0.0559 |  | 0.0502 |  |  |  | 0.0657 | 0.0641 | 0.0664 |  |  |  |  | 
20 | G166Q | 0.0541 | 0.0291 |  |  | 0.0464 | 0.0591 | 0.0613 | 0.0646 |  | 0.0608 |  | 0.0512 | 0.0484 | 0.0646 |  | 0.0479 |  |  | 
21 | G166T | 0.0271 |  |  |  | 0.166 | 0.0381 | 0.0508 |  | 0.048 | 0.0483 |  | 0.048 | 0.047 |  | 0.0465 |  | 0.0525 | 0.0702 | 
22 | Q146N | 0.116 | 0.0813 |  | 0.0764 | 0.118 |  | 0.066 |  |  |  |  |  | 0.113 | 0.0503 | 0.0536 | 0.0618 |  |  | 0.09
23 | V157R | 0.0747 | 0.0582 | 0.0432 | 0.0575 | 0.073 |  | 0.0578 | 0.0447 |  | 0.0761 | 0.0089 | 0.0703 | 0.0632 | 0.0475 | 0.0457 | 0.0622 |  |  | 0.0478
24 | V157N | 0.0521 | 0.0509 |  | 0.0603 | 0.0487 | 0.0259 | 0.0795 | 0.0406 | 0.0572 | 0.0451 | 0.056 | 0.0553 | 0.0541 | 0.0417 | 0.0503 | 0.0571 | 0.0419 | 0.054 | 
25 | E224P | 0.109 | 0.0791 |  |  | 0.0769 | 0.0551 |  | 0.0663 | 0.087 |  | 0.0665 | 0.066 | 0.0951 | 0.0593 | 0.0671 | 0.085 |  |  | 
26 | E224T | 0.109 | 0.0886 |  | 0.0801 | 0.102 | 0.0781 |  | 0.0577 |  |  |  | 0.0512 | 0.0958 |  | 0.0647 | 0.0562 | 0.0546 | 0.0859 | 
27 | T159G |  |  |  | 0.0931 | 0.103 | 0.0491 | 0.0356 |  | 0.0738 | 0.0811 | 0.0698 | 0.0666 | 0.11 |  | 0.033 |  | 0.0848 | 0.0866 | 
28 | T159E |  | 0.044 | 0.0713 |  |  | 0.0631 |  |  | 0.0688 |  |  | 0.0049 | 0.1 | 0.0532 | 0.0473 |  |  | 0.085 | 0.0618
29 | G28M |  | 0.0595 |  |  |  | 0.0637 | 0.0552 | 0.0625 | 0.0947 | 0.089 |  | 0.051 | 0.0902 | 0.0631 |  | 0.0439 | 0.0764 | 0.0838 | 
30 | K100T |  |  |  | 0.0636 |  | 0.0516 |  | 0.061 | 0.0674 |  |  | 0.0505 | 0.108 | 0.0422 | 0.0348 | 0.103 | 0.0685 |  | 
